# In the supplement of paper PMC12889115:
# The other results are listed elsewhere or left out. Repeats are few or missing, and single values can be far off.
# Test system: Salmonella enterica serovar Typhimurium SL1344
# Assay: bacterial growth OD600 after 18 h in MHB with 0.5 µg/mL polymyxin B; higher = more bacterial growth (less inhibition)
# Settings: 25 µM; polymyxin B 0.5 µg/mL; system: broth
# Experimental: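 Secondary screen of the 553 primary hits at 25 µM. (i) S. Typhimurium SL1344 grown in Mueller-Hinton broth with 0.5 µg/mL polymyxin B, OD600 read after 18 h. (ii) SAFIRE assay: RAW 264.7 macrophages infected with S. Typhimurium sifB::gfp (MOI 30); compound added 2 h post-infection; cells fixed at 18 h; GFP-positive pixel fraction per macrophage imaged by confocal microscopy and expressed as % of DMSO control.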
# 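Note: polymyxin B level opens the outer membrane while sparing the inner membrane, with novobiocin wells as reference growth inhibitor.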
row,SMILES,bacterial growth OD600
1,CC(=O)c1ccc(F)c(-c2cc(C)cc3c2OC(CNC(=O)/C=C/c2ccccn2)C3)c1 (centres undefined),-0.001
2,COc1ccc(CN(Cc2ccncc2)C(=O)c2sccc2C)cc1OCc1ccccc1F,0.002
3,Cc1ccc(CN(C)C(=O)CC2(c3ccccc3)CC(=O)N(CCCOc3cccnc3)C2=O)cc1 (centres undefined),-0.001
4,Cc1nonc1CN(C)C(=O)C1(N2CCCCC2)Cc2ccccc2C1,0.004
5,CN(C(=O)c1ccccn1)C(Cc1ccccc1)C1CCN(C(=O)/C=C/c2ccccc2)CC1 (centres undefined),0.01
6,O=C(CN1CC(c2ccccc2)CC1=O)NCCN1Cc2ccccc2OC(c2ccccc2F)C1 (centres undefined),-0.009
7,COc1cc(Cl)c(CN2CCOc3ccc(CN4C[C@@H](C)O[C@@H](C)C4)cc3C2)cc1OC,0.594
8,c1ccc(CCCc2noc(-c3ccc(N4CCCO4)nc3)n2)cc1,0.003
9,COc1cccc(CNC(=O)C2(N3C[C@@H](C)O[C@@H](C)C3)Cc3ccccc3C2)c1,0.007
10,COc1ccc(-c2cnnc(NCCc3ccccc3F)n2)c(OC)c1,-0.002
11,Cc1ccc2c(c1)CN(CC(=O)N1CCC(c3ccncc3)CC1)CC(c1ccsc1)O2 (centres undefined),0.001
12,COc1cc(C)ccc1OCc1nc(C(=O)N2CC[C@@H]3CCCC[C@H]3C2)co1,0.006
13,O=C(c1coc(COc2ccccc2F)n1)N1CCc2c(Cl)cccc2C1,-0.002
14,COc1ccc(CC2(CCC(=O)NC3CCCc4ccccc43)CCC(=O)N2)c2ccccc12 (centres undefined),-0.002
